# Results are given in words; binding and its absence hold for the method and conditions named. Some binding calls cover weakened binding; strength is not graded here.
# Sequences of proteins named here, by UniProt entry; tags and fusion partners are left off. A change or cut given only in a name is not applied to a line headed by its entry. A line that says so, or that is headed by a name, gives the form on record, which may keep a tag or linker. Residues count along the entry.
# UniProt P03950: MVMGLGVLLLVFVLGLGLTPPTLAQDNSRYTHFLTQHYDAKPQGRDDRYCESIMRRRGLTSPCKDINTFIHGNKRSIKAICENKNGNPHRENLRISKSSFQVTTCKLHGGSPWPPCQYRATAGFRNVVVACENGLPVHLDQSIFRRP
# angiogenin (wild-type ANG, pDBLeu-ANG): residues 25-147 of P03950
# ANG C-terminal half, residues 63–123: residues 87-147 of P03950
# ANG segment of residues 83–123: residues 107-147 of P03950
# ANG segment of residues 93–123: residues 117-147 of P03950
# ANG mutant, 101st residue arginine (R101) mutated to isoleucine (I) (P03950, form named): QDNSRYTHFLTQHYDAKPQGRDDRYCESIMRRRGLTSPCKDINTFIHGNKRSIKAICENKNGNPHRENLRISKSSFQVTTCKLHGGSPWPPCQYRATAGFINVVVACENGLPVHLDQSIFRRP
# UniProt P35609: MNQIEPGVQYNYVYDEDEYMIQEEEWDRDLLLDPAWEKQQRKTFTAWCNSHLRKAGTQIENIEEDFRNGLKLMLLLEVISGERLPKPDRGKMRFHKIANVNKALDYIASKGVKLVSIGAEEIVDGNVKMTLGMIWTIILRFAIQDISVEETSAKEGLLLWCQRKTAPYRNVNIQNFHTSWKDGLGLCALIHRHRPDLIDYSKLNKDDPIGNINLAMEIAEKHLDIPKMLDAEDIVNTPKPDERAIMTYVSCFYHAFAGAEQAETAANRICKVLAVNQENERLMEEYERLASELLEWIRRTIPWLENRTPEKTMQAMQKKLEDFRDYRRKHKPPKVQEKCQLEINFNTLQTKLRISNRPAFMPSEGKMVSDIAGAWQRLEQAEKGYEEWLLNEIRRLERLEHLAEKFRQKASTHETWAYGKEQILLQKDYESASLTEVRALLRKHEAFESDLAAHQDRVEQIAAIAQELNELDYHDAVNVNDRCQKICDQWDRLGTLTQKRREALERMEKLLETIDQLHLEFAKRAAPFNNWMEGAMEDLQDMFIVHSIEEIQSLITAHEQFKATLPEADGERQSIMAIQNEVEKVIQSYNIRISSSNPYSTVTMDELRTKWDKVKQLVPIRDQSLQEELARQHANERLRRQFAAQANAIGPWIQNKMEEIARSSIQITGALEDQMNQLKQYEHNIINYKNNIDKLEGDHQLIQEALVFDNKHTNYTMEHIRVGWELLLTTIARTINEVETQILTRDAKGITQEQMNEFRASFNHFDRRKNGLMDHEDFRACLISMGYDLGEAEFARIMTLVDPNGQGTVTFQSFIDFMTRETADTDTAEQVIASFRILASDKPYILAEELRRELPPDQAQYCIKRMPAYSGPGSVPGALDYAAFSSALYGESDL
# Tests used:
# Assay in all cases: two-hybrid; ProQuest Two-Hybrid System (Gibco), MaV203 yeast; ANG or its segments/mutants in pDBLeu (bait) co-transfected with ACTN2 or its segments in pPC86; X-gal assay of lacZ reporter, graded against control strains A-E
# [1] = molecular target: angiogenin (wild-type ANG, pDBLeu-ANG) (human) (UniProt P03950)
# [2] = molecular target: ANG C-terminal half, residues 63–123 (human) (UniProt P03950)
# [3] = molecular target: ANG mutant, 101st residue arginine (R101) mutated to isoleucine (I) (human) (UniProt P03950)
# [4] = molecular target: ANG segment of residues 83–123 (human) (UniProt P03950)
# [5] = molecular target: ANG segment of residues 93–123 (human) (UniProt P03950)
Substance,binding [1],also measured
ACTN2-391–632 (from UniProt P35609 391-632) (domain or fragment),no binding,–
ACTN2-383–620 (from UniProt P35609 383-620) (domain or fragment),no binding,–
ACTN2-404–739 (from UniProt P35609 404-739) (domain or fragment),no binding,–
ACTN2-375–894 (from UniProt P35609 375-894) (domain or fragment),binds,–
ACTN2-404–655 (from UniProt P35609 404-655) (domain or fragment),no binding,–
ACTN2-398–655 (from UniProt P35609 398-655) (domain or fragment),no binding,–
ACTN2-375–739 (from UniProt P35609 375-739) (domain or fragment),binds,–
alpha-actinin 2 (pPC86-ACTN2) (from UniProt P35609 1-894),–,binding [2]: binds; binding [3]: no binding; binding [4]: binds; binding [5]: no binding
ACTN2-398–632 (from UniProt P35609 398-632) (domain or fragment),no binding,–
ACTN2-398–739 (from UniProt P35609 398-739) (domain or fragment),no binding,–
ACTN2-383–632 (two-hybrid construct) (from UniProt P35609 383-632) (domain or fragment),binds,–

# Source: paper PMC9033276
